Here are results for four molecules from patent US20250270341A1 (Alector, published 2025).

One assay addresses T1, Cyno CD98hc ECD Avi-His (cynomolgus macaque, UniProt P08195 105-529 (human entry)).
T1 construct: biotinylated on the Avi tag where captured on streptavidin; also called Cyno CD98-AVI-His; Cyno CD98hc-AVI-His
T1 chain: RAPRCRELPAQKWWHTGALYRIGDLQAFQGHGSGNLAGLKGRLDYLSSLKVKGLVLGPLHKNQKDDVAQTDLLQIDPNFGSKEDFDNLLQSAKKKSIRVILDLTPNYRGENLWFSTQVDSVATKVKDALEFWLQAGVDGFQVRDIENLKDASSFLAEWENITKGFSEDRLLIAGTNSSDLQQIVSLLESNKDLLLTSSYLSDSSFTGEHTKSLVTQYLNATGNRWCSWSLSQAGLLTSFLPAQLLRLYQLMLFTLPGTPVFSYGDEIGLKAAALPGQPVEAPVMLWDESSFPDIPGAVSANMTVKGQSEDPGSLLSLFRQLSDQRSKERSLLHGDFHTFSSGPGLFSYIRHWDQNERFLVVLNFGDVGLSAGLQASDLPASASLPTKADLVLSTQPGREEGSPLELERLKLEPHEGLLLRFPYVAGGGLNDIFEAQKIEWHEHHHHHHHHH
The experiment in a line: ELISA, 1 ug/ml.

For the next assay, the target named is T2, huCD98hc ECD Avi-His (human, UniProt P08195 105-529).
T2 construct: biotinylated on the Avi tag where captured on streptavidin; also called Human CD98-AVI-His; Human CD98hc-AVI-His
T2 sequence: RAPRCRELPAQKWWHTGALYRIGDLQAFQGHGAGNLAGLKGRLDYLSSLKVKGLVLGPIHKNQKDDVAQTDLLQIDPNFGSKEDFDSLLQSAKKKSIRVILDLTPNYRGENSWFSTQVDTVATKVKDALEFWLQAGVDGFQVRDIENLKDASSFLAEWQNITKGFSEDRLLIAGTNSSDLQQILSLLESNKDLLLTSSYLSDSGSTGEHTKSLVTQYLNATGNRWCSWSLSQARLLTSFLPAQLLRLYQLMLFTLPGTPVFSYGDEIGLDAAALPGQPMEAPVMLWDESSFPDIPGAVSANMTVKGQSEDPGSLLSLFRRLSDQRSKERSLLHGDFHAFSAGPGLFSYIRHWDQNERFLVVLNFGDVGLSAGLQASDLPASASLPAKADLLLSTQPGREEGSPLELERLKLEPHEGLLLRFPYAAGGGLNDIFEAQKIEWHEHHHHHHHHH
The assay is described as follows: ELISA, 1 ug/ml.

B1: CD98hc.04.018 (2+1 bispecific antibody) (bispecific antibody)
heavy 1: EVRLLESGGGLVQPGGSLRLSCAASGFTFSNYAMGWVRQAPGKGLEWVSAISGSGGSTYYADSVKGRFTTSRDDSKNALYLQMNSLRAEDTAVYYCARGGPGWYAADVWGQGTTVTVSSASTKGPSVFPLAPSSKSTSGGTAALGCLVKDYFPEPVTVSWNSGALTSGVHTFPAVLQSSGLYSLSSVVTVPSSSLGTQTYICNVNHKPSNTKVDKKV[here human IgG1 Fc with changes without letters]GGGGSGGGGSGGGGSQIQLVQSGPELKKPGETVKISCKASGYTFRNYGMNWVKQAPGKGLKWMGWINTYTGEPTYAEDFKGRFAFSLETSASTAYLQINKLKNEDEATYFCARGEAHWYFDVWGAGTTVTVSSGGSEGKSSGSGSESKSTGGSQIVLTQSPAIMSASLGERVTMTCTASSSVSSSYLYWYQQKPGSSPKLWIYSIFNLASGVPARFSGSGSGTSYSLTISSMEAEDAATYYCHQYHRSPPTFGGGTKLEIK
heavy 2: EVRLLESGGGLVQPGGSLRLSCAASGFTFSNYAMGWVRQAPGKGLEWVSAISGSGGSTYYADSVKGRFTTSRDDSKNALYLQMNSLRAEDTAVYYCARGGPGWYAADVWGQGTTVTVSS[here human IgG1 constant region with changes without letters]
light: DIQMTQSPSSLSASVGDRVTITCRASQSISSYLNWYQQKPGKAPKLLIYAASSLQSGVPSRFSGSGSGTDFTLTISSLQPEDFATYYCQQADLPAFAFGGGTKVEIKRTVAAPSVFIFPPSDEQLKSGTASVVCLLNNFYPREAKVQWKVDNALQSGNSQESVTEQDSKDSTYSLSSTLTLSKADYEKHKVYACEVTHQGLSSPVTKSFNRGEC
For B1, the “ELISA fold-change relative to isotype hIgG” value was 22.7 with Cyno CD98hc ECD Avi-His and 23.6 in the assay with huCD98hc ECD Avi-His.

B2: CD98hc.04.022 (2+1 bispecific antibody) (bispecific antibody)
heavy 1: EVRLLESGGGLVQPGGSLRLSCAASGFTFSNYAMGWVRQAPGKGLEWVSAISGSGGSTYYADSVKGRFTTSRDDSKNALYLQMNSLRAEDTAVYYCARGGPGWYAADVWGQGTTVTVSSASTKGPSVFPLAPSSKSTSGGTAALGCLVKDYFPEPVTVSWNSGALTSGVHTFPAVLQSSGLYSLSSVVTVPSSSLGTQTYICNVNHKPSNTKVDKKV[here human IgG1 Fc with changes without letters]GGGGSGGGGSGGGGSEVQLQQSGAELVKPGASVKLSCTASGFNIKDTFMHWMKQRPEQGLEWIGRIDPANANTRYDPKFQGKATITTDTSSNTAYLQLSSLTSEDTAVYYCARDVYYDVWGAGTTVTVSSGGSEGKSSGSGSESKSTGGSDILMTQSPSSMSVSLGDTVTITCHASQGISSNIGWLQQKPGRSFKGLIYHGSNLEDGVPSRFTGSGSGTDYSLTISGLESEDFADYYCVQYAQFPRTFGGGTKLEIQ
heavy 2: EVRLLESGGGLVQPGGSLRLSCAASGFTFSNYAMGWVRQAPGKGLEWVSAISGSGGSTYYADSVKGRFTTSRDDSKNALYLQMNSLRAEDTAVYYCARGGPGWYAADVWGQGTTVTVSS[here human IgG1 constant region with changes without letters]
light: DIQMTQSPSSLSASVGDRVTITCRASQSISSYLNWYQQKPGKAPKLLIYAASSLQSGVPSRFSGSGSGTDFTLTISSLQPEDFATYYCQQADLPAFAFGGGTKVEIKRTVAAPSVFIFPPSDEQLKSGTASVVCLLNNFYPREAKVQWKVDNALQSGNSQESVTEQDSKDSTYSLSSTLTLSKADYEKHKVYACEVTHQGLSSPVTKSFNRGEC
As to B2, the “ELISA fold-change relative to isotype hIgG” value in the assay with Cyno CD98hc ECD Avi-His stood at 12.6; with huCD98hc ECD Avi-His it was 19.6.

B3: CD98hc.04.045 (2+1 bispecific antibody) (bispecific antibody)
heavy 1: EVRLLESGGGLVQPGGSLRLSCAASGFTFSNYAMGWVRQAPGKGLEWVSAISGSGGSTYYADSVKGRFTTSRDDSKNALYLQMNSLRAEDTAVYYCARGGPGWYAADVWGQGTTVTVSSASTKGPSVFPLAPSSKSTSGGTAALGCLVKDYFPEPVTVSWNSGALTSGVHTFPAVLQSSGLYSLSSVVTVPSSSLGTQTYICNVNHKPSNTKVDKKV[here human IgG1 Fc with changes without letters]GGGGSGGGGSGGGGSQIQLVQSGPELKKPGETVKISCKASGYSITNFGMNWVKQAPGKGLKWMGWVNTYTGEPTYADDFKGRFAFSLETSASTASLQINNLKNEDTATYFCTRSVITYTMDYWGQGTSVTVSSGGSEGKSSGSGSESKSTGGSDIQLTQSPSSLSASLGERVSLTCRASQEISGYLSWLQQKPDGTIKRLIYAASTLDSGVPKRFSGSRSGSDYSLTISSLESEDFADYYCLQYASYPRTFGGGTKVEIK
heavy 2: EVRLLESGGGLVQPGGSLRLSCAASGFTFSNYAMGWVRQAPGKGLEWVSAISGSGGSTYYADSVKGRFTTSRDDSKNALYLQMNSLRAEDTAVYYCARGGPGWYAADVWGQGTTVTVSS[here human IgG1 constant region with changes without letters]
light: DIQMTQSPSSLSASVGDRVTITCRASQSISSYLNWYQQKPGKAPKLLIYAASSLQSGVPSRFSGSGSGTDFTLTISSLQPEDFATYYCQQADLPAFAFGGGTKVEIKRTVAAPSVFIFPPSDEQLKSGTASVVCLLNNFYPREAKVQWKVDNALQSGNSQESVTEQDSKDSTYSLSSTLTLSKADYEKHKVYACEVTHQGLSSPVTKSFNRGEC
For B3, the “ELISA fold-change relative to isotype hIgG” value turned out to be 20.1 with Cyno CD98hc ECD Avi-His and 21.9 with huCD98hc ECD Avi-His.

B4: CD98hc.04.046 (2+1 bispecific antibody) (bispecific antibody)
heavy 1: EVRLLESGGGLVQPGGSLRLSCAASGFTFSNYAMGWVRQAPGKGLEWVSAISGSGGSTYYADSVKGRFTTSRDDSKNALYLQMNSLRAEDTAVYYCARGGPGWYAADVWGQGTTVTVSSASTKGPSVFPLAPSSKSTSGGTAALGCLVKDYFPEPVTVSWNSGALTSGVHTFPAVLQSSGLYSLSSVVTVPSSSLGTQTYICNVNHKPSNTKVDKKV[here human IgG1 Fc with changes without letters]GGGGSGGGGSGGGGSQIQLVQSGPVLKKPGETVKISCKASGYTFTNFGMNWVKQAPGKGLKWMGWIDTYTREPTYVDDFKGRFAFSLETSVTTAYLQINDLKNEDSATYFCARGESHWYFDVWGAGTTVTVSSGGSEGKSSGSGSESKSTGGSQIVLTQSPAIMSASLGERVTMTCIVSSSVSSSYLYWYQQKPGSSPKLWIYSTSILASGVPGRFSGSGSGTSYSLTISSMEAEDAATYYCHQYHRSPPTFGGGTKLEIK
heavy 2: EVRLLESGGGLVQPGGSLRLSCAASGFTFSNYAMGWVRQAPGKGLEWVSAISGSGGSTYYADSVKGRFTTSRDDSKNALYLQMNSLRAEDTAVYYCARGGPGWYAADVWGQGTTVTVSS[here human IgG1 constant region with changes without letters]
light: DIQMTQSPSSLSASVGDRVTITCRASQSISSYLNWYQQKPGKAPKLLIYAASSLQSGVPSRFSGSGSGTDFTLTISSLQPEDFATYYCQQADLPAFAFGGGTKVEIKRTVAAPSVFIFPPSDEQLKSGTASVVCLLNNFYPREAKVQWKVDNALQSGNSQESVTEQDSKDSTYSLSSTLTLSKADYEKHKVYACEVTHQGLSSPVTKSFNRGEC
As to B4, the “ELISA fold-change relative to isotype hIgG” value amounted to 17.2 with Cyno CD98hc ECD Avi-His and 16.2 in the assay with huCD98hc ECD Avi-His.
